# According to PubChem BioAssay AID624170 (National Center for Advancing Translational Sciences (NCATS), 2012):
# Screen size: about 410,000 compounds; about 850 (0.21%) were called active. This list was built around the results that the source calls inconclusive (neither active nor inactive); the mix of calls is not that of the screen. Calls follow the shape of the dose curve; as a rule, active = well fitted inhibition curve with a large enough effect; inconclusive = small, poorly fitted or top-dose-only effect, or another doubt; inactive = no such curve, though single readings can be large or run the other way. Potencies of inconclusive entries are left out as doubtful fits.
# Target: Glutaminase kidney isoform, mitochondrial (Homo sapiens) (UniProt O94925)
# Assay: qHTS for Inhibitors of Glutaminase (GLS)
# Settings: GLS enzymatic activity, qHTS titration; series mostly up to 45.5 µM
# Outline: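 Coupled fluorescence readout: glutamate oxidase/HRP/Amplex Red detect glutamate formed by hKGA from L-glutamine (1 mM solution added). Buffer 45 mM KH2PO4 pH 8.2, 0.02% Tween-20; reads at t0 and 30 min RT.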
# Potency is read from the fitted curve at half-maximal effect; tags tell the direction and shape of the fitted curve.
# Sequence of UniProt O94925 (O94925 whole entry, looked up, canonical isoform): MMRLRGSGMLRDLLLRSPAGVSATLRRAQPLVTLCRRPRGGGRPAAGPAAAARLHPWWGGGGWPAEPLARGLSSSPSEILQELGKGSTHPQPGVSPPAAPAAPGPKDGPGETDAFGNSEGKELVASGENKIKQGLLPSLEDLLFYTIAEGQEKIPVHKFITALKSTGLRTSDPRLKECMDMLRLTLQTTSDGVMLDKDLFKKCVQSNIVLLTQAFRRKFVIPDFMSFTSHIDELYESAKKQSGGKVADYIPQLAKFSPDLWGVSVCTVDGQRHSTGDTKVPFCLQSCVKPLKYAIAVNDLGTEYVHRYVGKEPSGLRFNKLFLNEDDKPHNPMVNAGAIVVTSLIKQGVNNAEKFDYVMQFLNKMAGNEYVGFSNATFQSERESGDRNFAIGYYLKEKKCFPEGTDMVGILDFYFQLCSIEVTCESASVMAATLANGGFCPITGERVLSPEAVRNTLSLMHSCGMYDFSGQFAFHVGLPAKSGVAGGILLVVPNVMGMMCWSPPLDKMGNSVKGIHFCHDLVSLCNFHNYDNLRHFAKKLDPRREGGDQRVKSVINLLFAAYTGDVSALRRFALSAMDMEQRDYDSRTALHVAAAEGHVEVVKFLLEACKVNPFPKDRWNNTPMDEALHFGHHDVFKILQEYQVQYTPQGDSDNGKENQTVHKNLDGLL
row,SMILES,Potency
1,O=C(Cn1cnc2sc(-c3ccccc3)cc2c1=O)NCc1ccco1,"inconclusive [inhibitor, single point]"
2,O=C(Nc1ccccc1C(F)(F)F)c1ccc(F)c(S(=O)(=O)N2CCc3ccccc3C2)c1,"inconclusive [inhibitor, single point]"
3,Cc1nn(-c2ccccc2)c(Cl)c1/C=C/C(=O)c1ccc(O)cc1,"inconclusive [inhibitor, partial curve]"
4,O=C(CCCN1C(=O)/C(=C/c2ccco2)SC1=S)Nc1ccccc1C(=O)O,"inconclusive [inhibitor, partial curve, poor fit]"
5,COc1ccc(OC)c(NC(=O)c2nc(S(=O)(=O)Cc3ccc(F)cc3)ncc2Cl)c1,inactive
6,Cc1c(C(=O)NNC(=O)c2csc(N3CCOCC3)n2)oc2ccc(Br)cc12,inactive
7,O=C(COC(=O)Cc1cccc(C(F)(F)F)c1)NCc1ccco1,"inconclusive [inhibitor, partial curve]"
8,Cc1ncc[nH]1,"inconclusive [inhibitor, single point]"
9,O=C1C=CC(=O)N1c1ccccc1N1C(=O)C=CC1=O,"inconclusive [inhibitor, partial curve, poor fit]"
10,Cc1cc(C(C)(C)C)oc1C(=O)O,inactive
11,Cc1ccc(-c2cn3nc(N4CCCC(C(=O)NCc5ccccc5F)C4)sc3n2)cc1 (configuration not stated),inactive
12,COc1ccc2c(c1)c[n+](C)c1c3cc(OC)c(OC)cc3ccc21,"inconclusive [inhibitor, single point]"
13,Cc1nc(SCC(=O)O)c(C#N)c2c1CCCC2,"inconclusive [inhibitor, partial curve, poor fit]"
14,COc1cc(OC)cc(-c2nnc(Nc3nc4c(F)cccc4s3)o2)c1,"inconclusive [inhibitor, single point]"
15,CCOc1ccc2nc(Cl)c(C3CC(c4ccc(C)cc4)=NN3C(=O)CCC(=O)O)cc2c1 (configuration not stated),"inconclusive [inhibitor, single point]"
16,CCCCSc1n[nH]c(=S)c2nc[nH]c12,"inconclusive [inhibitor, partial curve, poor fit]"
17,O=C(O)CCCn1c(=S)[nH]c2c(sc3ccc([N+](=O)[O-])cc32)c1=O,"inconclusive [inhibitor, single point]"
18,Nc1nc(SCC(=O)NCC2CCCO2)[nH]c(=O)c1NC(=O)c1ccco1 (configuration not stated),"inconclusive [inhibitor, single point]"
19,CC1CCCCN1c1cc2c(cc1F)c(=O)c(S(=O)(=O)c1ccccc1)cn2Cc1ccccc1 (configuration not stated),inactive
20,Cc1ccc2[nH]c(=O)c(CN(Cc3cccnc3)Cc3nnnn3CCN3CCOCC3)cc2c1,"inconclusive [inhibitor, single point]"
21,CC1=C(C#N)C(=O)NC(=O)/C1=C\c1ccc(-c2cc(C)c(C)cc2[N+](=O)[O-])o1,active: 11.2 µM
22,COc1ccc(Nc2ccccc2C(=O)O)cc1,inactive
23,Cc1cccc(OCC(=O)N/N=C2/SCC(=O)N2Cc2ccco2)c1,"inconclusive [inhibitor, single point]"

row,SMILES,Potency
1,COCCNC(=O)CN(Cc1ccc2c(c1)OCO2)C(=O)CCC(=O)Nc1nccs1,"inconclusive [inhibitor, single point]"
2,Cc1ccc2nc(/C(C#N)=C\c3ccc(OC(=O)c4cccs4)cc3)[nH]c2c1,"inconclusive [inhibitor, single point]"
3,COc1cc(C)cc(C(=O)O)c1C1=C(O)c2cccc(O)c2C(=O)C1=O,"inconclusive [inhibitor, single point]"
4,CCOc1ccc(S(=O)(=O)N(CC)CC)cc1NS(=O)(=O)c1ccc(F)c(F)c1F,"inconclusive [inhibitor, single point]"
5,O=C(Nc1nnc(-c2ccncc2)o1)c1ccccc1,"inconclusive [inhibitor, single point]"
6,Cc1c(C)c2cc(Cl)c(OCC(=O)Nc3ccccn3)cc2oc1=O,inactive
7,CC1(C)Cc2c(sc3ncn4c(=S)[nH]nc4c23)CO1,active: 12.6 µM
8,O=C(CSc1nnc(-c2ccc(O)cc2)o1)N1CCOCC1,active: 8.91 µM
9,CC(C)n1c(=O)[nH][nH]c1=S,"inconclusive [inhibitor, single point]"
10,COCC(C)NC(=S)NC(=O)c1cc(S(=O)(=O)N2CCOCC2)ccc1C (configuration not stated),"inconclusive [inhibitor, single point]"
11,O=c1c2ccccc2c(C=Nc2ccc(S(=O)(=O)N3CCCCC3)cc2)c(O)n1-c1ccc(Cl)cn1,inactive
12,CCN(CC)c1ccc(NC2CC(=O)N(CCc3ccc(OC)cc3)C2=O)cc1 (configuration not stated),"inconclusive [inhibitor, partial curve]"
13,CC1(C)CC[C@]2(C(=O)O[C@@H]3O[C@H](CO)[C@@H](O)[C@H](O)[C@H]3O)CC[C@]3(C)C(=CCC4[C@@]5(C)CC[C@H](O[C@@H]6O[C@H](C(=O)O)[C@@H](O[C@H]7OC[C@@H](O)[C@@H](O)[C@@H]7O)[C@H](O)[C@H]6O)C(C)(C)C5CC[C@]43C)[C@@H]2C1 (some centres not stated),"inconclusive [inhibitor, single point]"
14,N#Cc1ccccc1S(=O)(=O)N1CCN(CC(O)COc2ccccc2F)CC1 (configuration not stated),inactive
15,COC(=O)CC(NS(=O)(=O)c1cccs1)c1ccccc1Cl (configuration not stated),"inconclusive [inhibitor, single point]"
16,Cc1ccccc1Oc1nc2c(C)cccn2c(=O)c1/C=C(\C#N)C(=O)NC1CCS(=O)(=O)C1 (configuration not stated),"inconclusive [inhibitor, single point]"
17,COc1ccc(OC)c(CCNC(=O)c2cc3c(s2)-c2c(C)cccc2OC3)c1,inactive
18,C/C(N)=C(/C#N)C(=O)CSc1ncnc2ccccc12,inactive
19,COc1cc(-c2nc3ccc(C)cn3c2Nc2ccc3c(c2)OCCO3)ccc1O,active: 12.6 µM
20,CC1NC(=S)N(C2CCCCC2)C1=O (configuration not stated),"inconclusive [inhibitor, partial curve, poor fit]"
21,Oc1ccc(O)c(Cc2nc3ccccc3[nH]2)c1,"inconclusive [inhibitor, single point]"
22,CC1=C2C(CCS2(=O)=O)CC2(C1)C(=O)OC(C)(C)OC2=O (configuration not stated),"inconclusive [inhibitor, single point]"
23,CC1=[N+](CC(=O)c2ccccc2)CCn2cccc21,inactive

row,SMILES,Potency
1,O=C(Nc1ccc(-c2csnn2)cc1)C1CC1,"inconclusive [inhibitor, single point]"
2,Cc1nc(N)sc1-c1csc(Nc2cccc(O)c2)n1,"inconclusive [inhibitor, partial curve]"
3,Nc1c(S(=O)(=O)O)cc(NC(=O)c2ccccc2)c2c1C(=O)c1ccccc1C2=O,"inconclusive [inhibitor, single point]"
4,O=C(CCCc1nc(-c2ccccc2)no1)Nc1cccnc1,"inconclusive [inhibitor, single point]"
5,O=C(O)c1ccc(CSc2nc3ccc(NC(=O)c4ccccc4C(=O)O)cc3s2)cc1,inactive
6,COc1cc(-c2nnc(SCC(=O)Nc3ccc4c(c3)OCCO4)o2)cc(OC)c1OC,"inconclusive [inhibitor, single point]"
7,Cc1cc(C)c(S(=O)(=O)c2ccccc2)c(OC(=O)c2c(F)cccc2F)n1,"inconclusive [inhibitor, partial curve]"
8,COc1ccc(N2CC(C(=O)Nc3nnc(SCC(=O)NCC4CCCO4)s3)CC2=O)cc1 (configuration not stated),inactive
9,Nc1c2c(nn1-c1ccccc1)CCC2,"inconclusive [inhibitor, partial curve, poor fit]"
10,O=C1Oc2ccccc2C(=O)/C1=C\N1CCN(c2ccccc2)CC1,"inconclusive [inhibitor, partial curve]"
11,CCn1c(CCCOc2ccc(Cl)cc2Cl)n[nH]c1=S,"inconclusive [inhibitor, partial curve]"
12,O=C(NCc1n[nH]c(=S)n1-c1ccc(Br)cc1)c1cccs1,"inconclusive [inhibitor, partial curve]"
13,Cc1cccc(OCC(=O)Nc2cccc(OCc3cc(=O)n4cccc(C)c4n3)c2)c1,"inconclusive [inhibitor, full curve, poor fit]"
14,Cc1csc(NC(=O)CSc2nc3sc(C)c(C)c3c(=O)[nH]2)n1,inactive
15,O=c1c2c3nc4ccccc4nc3n(-c3ccc4c(c3)OCCO4)c2ncn1C1CCCC1,"inconclusive [inhibitor, full curve]"
16,CC(C)CC1C(=O)N(Cc2cn(Cc3ccco3)nn2)CCS(=O)(=O)N1Cc1ccc(-c2ccccc2)cc1 (configuration not stated),inactive
17,CC(=O)N1N=C(c2ccco2)CC1c1cc2cc(C)ccc2nc1Cl (configuration not stated),active: 5.62 µM
18,Fc1ccccc1-c1nnc2ccc3ccccc3n12,"inconclusive [inhibitor, single point]"
19,O=C(CCNC(=O)Cn1cnc2ccccc2c1=O)NCC1COc2ccccc2O1 (configuration not stated),"inconclusive [inhibitor, single point]"
20,COc1ccc(Nc2c(C)cccc2C)cc1,"inconclusive [inhibitor, partial curve, poor fit]"
21,CCOc1ccccc1-n1c(SCC(=O)N2CCCC2)nnc1-c1ccc(O)cc1,"inconclusive [inhibitor, single point]"
